{"source": "the supplement of paper PMC3334620", "note": "Over roughly 33,000 sequences, “E-score (-0.5 to 0.5)” has its median near -0.053; the highest 2% begin near 0.37. The list shows a part of the results."}
{"biological_target": "Hap1 (UniProt P0CE41)", "sequence (P0CE41 whole entry, the tested form may be a part)": "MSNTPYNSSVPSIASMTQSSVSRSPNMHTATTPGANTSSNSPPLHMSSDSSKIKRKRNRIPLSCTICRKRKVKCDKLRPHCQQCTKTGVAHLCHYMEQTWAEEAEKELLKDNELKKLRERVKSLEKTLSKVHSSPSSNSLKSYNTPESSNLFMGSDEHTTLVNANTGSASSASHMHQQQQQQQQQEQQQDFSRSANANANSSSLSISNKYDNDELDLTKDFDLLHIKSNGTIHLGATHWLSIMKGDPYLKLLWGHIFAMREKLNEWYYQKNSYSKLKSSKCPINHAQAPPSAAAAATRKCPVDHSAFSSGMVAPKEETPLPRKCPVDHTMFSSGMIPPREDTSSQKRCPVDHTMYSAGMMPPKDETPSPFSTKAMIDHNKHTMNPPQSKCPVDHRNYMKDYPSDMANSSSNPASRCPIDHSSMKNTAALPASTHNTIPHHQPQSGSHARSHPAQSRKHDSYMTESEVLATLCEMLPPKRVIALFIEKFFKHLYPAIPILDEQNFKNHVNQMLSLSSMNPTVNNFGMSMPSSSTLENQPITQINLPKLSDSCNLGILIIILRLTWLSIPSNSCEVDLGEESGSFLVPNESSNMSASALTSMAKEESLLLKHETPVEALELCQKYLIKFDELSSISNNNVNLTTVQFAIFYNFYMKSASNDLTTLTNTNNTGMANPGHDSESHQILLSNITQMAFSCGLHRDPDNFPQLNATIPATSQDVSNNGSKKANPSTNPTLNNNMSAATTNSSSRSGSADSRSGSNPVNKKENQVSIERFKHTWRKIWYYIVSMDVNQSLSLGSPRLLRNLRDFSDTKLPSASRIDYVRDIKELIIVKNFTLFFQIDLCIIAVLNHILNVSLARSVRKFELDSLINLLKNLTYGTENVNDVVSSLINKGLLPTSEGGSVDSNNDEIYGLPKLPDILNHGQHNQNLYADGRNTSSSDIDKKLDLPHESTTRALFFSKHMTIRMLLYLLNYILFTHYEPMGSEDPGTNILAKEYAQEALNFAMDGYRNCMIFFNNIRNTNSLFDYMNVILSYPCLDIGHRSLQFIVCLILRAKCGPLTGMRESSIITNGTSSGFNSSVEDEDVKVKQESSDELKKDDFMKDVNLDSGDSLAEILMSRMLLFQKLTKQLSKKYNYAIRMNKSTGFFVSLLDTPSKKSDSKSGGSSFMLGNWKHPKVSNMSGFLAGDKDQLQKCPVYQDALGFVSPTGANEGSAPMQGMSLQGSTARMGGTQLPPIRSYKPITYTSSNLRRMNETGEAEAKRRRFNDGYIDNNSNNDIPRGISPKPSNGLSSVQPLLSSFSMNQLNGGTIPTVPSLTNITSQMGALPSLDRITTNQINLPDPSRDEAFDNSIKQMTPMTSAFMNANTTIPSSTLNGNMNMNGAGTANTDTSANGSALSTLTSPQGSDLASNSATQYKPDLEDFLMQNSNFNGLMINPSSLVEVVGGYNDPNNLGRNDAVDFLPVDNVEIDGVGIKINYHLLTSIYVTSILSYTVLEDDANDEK", "experiment": "PBM E-score (8-mer binding enrichment) (E-score (-0.5 to 0.5)); higher = stronger / more preferred TF binding; most listed sequences are background and not binding sites", "details": "protein concentration: 200 nM; construct: GST-DNA-binding domain", "description": "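Universal 'all 10-mer' protein binding microarrays (Agilent AMADID 015681) probed with GST-tagged S. cerevisiae TFs (full-length or DBD) made by in vitro transcription/translation (PURExpress), about 100-200 nM. Bound TF was detected with fluorescent anti-GST. Each ungapped 8-mer (which stands for itself and its reverse complement) is scored by the PBM enrichment score (E-score), a modified Wilcoxon-Mann-Whitney statistic from -0.5 to +0.5, computed with the Universal PBM Analysis Suite. Scale: above 0.35 generally sequence-specific binding.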"}
{"sequence": "CGAGAACA", "PBM E-score": 0.164}
{"sequence": "GGAAGCCA", "PBM E-score": -0.0815}
{"sequence": "CCGTGGTC", "PBM E-score": 0.0958}
{"sequence": "CCGCACCA", "PBM E-score": 0.155}
{"sequence": "CCGAGCAA", "PBM E-score": 0.344}
{"sequence": "CAGATAGA", "PBM E-score": -0.328}
{"sequence": "CCGGGAGA", "PBM E-score": 0.29}
{"sequence": "CCCCAGTA", "PBM E-score": 0.0524}
{"sequence": "CAATTTAC", "PBM E-score": -0.0319}
{"sequence": "GTCTTAAC", "PBM E-score": -0.117}
{"sequence": "CCAAGAGC", "PBM E-score": -0.212}
{"sequence": "ATAGGCTC", "PBM E-score": -0.0591}
{"sequence": "CCGAAACG", "PBM E-score": 0.377}
{"sequence": "CGTCTTCA", "PBM E-score": -0.0155}
{"sequence": "ACGGGTGA", "PBM E-score": 0.186}
{"sequence": "GCCCACGC", "PBM E-score": -0.0621}
{"sequence": "CATAATTC", "PBM E-score": 0.085}
{"sequence": "ACGAGTCA", "PBM E-score": -0.321}
{"sequence": "AAATGTAC", "PBM E-score": 0.00474}
{"sequence": "CGAAGAAA", "PBM E-score": 0.138}
{"sequence": "TAAACTAA", "PBM E-score": -0.105}
{"sequence": "AGTGATCC", "PBM E-score": -0.0847}
{"sequence": "GATCCACA", "PBM E-score": -0.119}
{"sequence": "TGCCGGAA", "PBM E-score": 0.365}
{"sequence": "AAATTCCG", "PBM E-score": 0.376}
{"sequence": "GCTGTTTA", "PBM E-score": 0.00593}
{"sequence": "GACGACTA", "PBM E-score": -0.237}
{"sequence": "ACACTATC", "PBM E-score": -0.158}
{"sequence": "TCACACCA", "PBM E-score": -0.194}
{"sequence": "CAGAATGC", "PBM E-score": -0.13}
{"sequence": "CCTCTCCA", "PBM E-score": -0.374}
{"sequence": "AGCCGGTC", "PBM E-score": 0.0184}
{"sequence": "CCAGAGAA", "PBM E-score": -0.216}
{"sequence": "GCAACTGC", "PBM E-score": -0.0498}
{"sequence": "ACTTGGGG", "PBM E-score": -0.126}
{"sequence": "AATGCCCA", "PBM E-score": -0.257}
{"sequence": "ATCTCGGC", "PBM E-score": 0.379}
{"sequence": "GCCCATTA", "PBM E-score": -0.17}
{"sequence": "CAAAAAAC", "PBM E-score": -0.168}
{"sequence": "GACAAACC", "PBM E-score": 0.00912}
{"sequence": "ACAATAAG", "PBM E-score": -0.0552}
{"sequence": "CGTTCCAG", "PBM E-score": -0.157}
{"sequence": "TACAGAGA", "PBM E-score": -0.238}
{"sequence": "ACGCCCCA", "PBM E-score": 0.12}
{"sequence": "CTTCTTGC", "PBM E-score": -0.108}
{"sequence": "GGGAAGCA", "PBM E-score": 0.0388}
{"sequence": "CGCCAGCC", "PBM E-score": 0.124}
{"sequence": "ACACTGGC", "PBM E-score": -0.167}
{"sequence": "CGGCGGAC", "PBM E-score": 0.38}
{"sequence": "AATGTACG", "PBM E-score": -0.115}
{"sequence": "AAGACAAT", "PBM E-score": 0.0491}
{"sequence": "CCTTCTAC", "PBM E-score": -0.124}
{"sequence": "AGTATAGA", "PBM E-score": 0.0547}
{"sequence": "ACAGTTCC", "PBM E-score": 0.214}
{"sequence": "GTGCTTCA", "PBM E-score": -0.177}
{"sequence": "CGCGGCCG", "PBM E-score": 0.27}
{"sequence": "ATTCGGAG", "PBM E-score": 0.299}
{"sequence": "CCTTGTAG", "PBM E-score": -0.258}
{"sequence": "CATAATGA", "PBM E-score": -0.116}
{"sequence": "GGGCCCGA", "PBM E-score": 0.317}
{"sequence": "GAAGTCAC", "PBM E-score": -0.0647}
{"sequence": "CTCTCAAG", "PBM E-score": -0.109}
{"sequence": "ATTGTGCA", "PBM E-score": -0.151}
{"sequence": "ATCGACTG", "PBM E-score": 0.0105}
{"sequence": "TATTTACA", "PBM E-score": -0.145}
{"sequence": "CTCCCCCC", "PBM E-score": -0.0554}
{"sequence": "AGCTCTTC", "PBM E-score": 0.0747}
{"sequence": "CAGCAACA", "PBM E-score": -0.13}
{"sequence": "ATCAATCG", "PBM E-score": -0.0657}
{"sequence": "AGGCACCC", "PBM E-score": -0.17}
{"sequence": "CCGGGCAC", "PBM E-score": 0.355}
{"sequence": "CGATGGTC", "PBM E-score": -0.0737}
{"sequence": "CGTCAACA", "PBM E-score": -0.129}
{"sequence": "AGCTTAGA", "PBM E-score": -0.00759}
{"sequence": "AGGTGATA", "PBM E-score": -0.163}
{"sequence": "CAAGAGTG", "PBM E-score": -0.163}
{"sequence": "TACGAAGA", "PBM E-score": -0.183}
{"sequence": "AGCTTACT", "PBM E-score": -0.208}
{"sequence": "AAGGCAGC", "PBM E-score": -0.105}
{"sequence": "ACATATTG", "PBM E-score": -0.253}
{"sequence": "CACCCGGG", "PBM E-score": 0.312}
{"sequence": "CCAGAAAG", "PBM E-score": -0.06}
{"sequence": "CGGGAGCC", "PBM E-score": 0.00882}
{"sequence": "CCTGTCCG", "PBM E-score": 0.193}
{"sequence": "CCTGCTTC", "PBM E-score": -0.0515}
{"sequence": "CATATGCA", "PBM E-score": -0.19}
{"sequence": "GGAAGGCC", "PBM E-score": 0.103}
{"sequence": "GTGCAAAC", "PBM E-score": -0.104}
{"sequence": "ACCCAAAG", "PBM E-score": -0.225}
{"sequence": "GTGTAGCA", "PBM E-score": -0.275}
{"sequence": "ATGGTCTG", "PBM E-score": -0.23}
{"sequence": "CATTCGAA", "PBM E-score": -0.131}
{"sequence": "ATTCGTTG", "PBM E-score": 0.059}
{"sequence": "GATGGGAC", "PBM E-score": 0.142}
{"sequence": "GATGTAAC", "PBM E-score": 0.0571}
{"sequence": "TCACTCAA", "PBM E-score": -0.25}
{"sequence": "AAACGGGC", "PBM E-score": 0.123}
{"sequence": "GCTTACCC", "PBM E-score": -0.0374}
{"sequence": "ATATTTCG", "PBM E-score": 0.235}
{"sequence": "AAGTATGC", "PBM E-score": -0.221}
{"sequence": "ATGCCGTC", "PBM E-score": 0.128}
{"sequence": "GCTTAATA", "PBM E-score": -0.00293}
{"sequence": "AACACTCC", "PBM E-score": 0.0969}
{"sequence": "AAAGCTCC", "PBM E-score": 0.0556}
{"sequence": "ACCCGCTG", "PBM E-score": 0.126}
{"sequence": "CCCCGGCG", "PBM E-score": 0.309}
{"sequence": "AACGGGTG", "PBM E-score": 0.29}
{"sequence": "CTCCGACC", "PBM E-score": 0.359}
{"sequence": "CAACTCCG", "PBM E-score": 0.398}
{"sequence": "AGCTAAGC", "PBM E-score": -0.0745}
{"sequence": "ATCCGCAA", "PBM E-score": 0.203}
{"sequence": "CTCTTGCC", "PBM E-score": -0.0922}
{"sequence": "AACGTAGA", "PBM E-score": -0.0629}
{"sequence": "TCCGACAA", "PBM E-score": 0.35}
{"sequence": "CCTGCCAC", "PBM E-score": -0.207}
{"sequence": "TCAAAACA", "PBM E-score": -0.149}
{"sequence": "CTTTTCGC", "PBM E-score": 0.234}
{"sequence": "AATTTGTC", "PBM E-score": -0.0649}
{"sequence": "ATGCTCTA", "PBM E-score": -0.152}
{"sequence": "TATAAGAA", "PBM E-score": 0.0514}
{"sequence": "CGGGTGAG", "PBM E-score": 0.201}
{"sequence": "GAATGAAA", "PBM E-score": -0.0251}
{"sequence": "CTTATAAG", "PBM E-score": 0.0651}
{"sequence": "ACTAGATG", "PBM E-score": -0.293}
{"sequence": "CGGTGTCA", "PBM E-score": 0.0418}
{"sequence": "AGCGCAAG", "PBM E-score": -0.26}
{"sequence": "CTCCGTCA", "PBM E-score": 0.175}
{"sequence": "AGTGGGTC", "PBM E-score": -0.0315}
{"sequence": "AGGTTGCC", "PBM E-score": -0.0212}
{"sequence": "AATCTGCT", "PBM E-score": -0.00039}
{"sequence": "AGGCACCT", "PBM E-score": -0.00315}
{"sequence": "CCTGGCCC", "PBM E-score": 0.041}
{"sequence": "CTCAATCA", "PBM E-score": -0.0389}
{"sequence": "ACGTAACG", "PBM E-score": 0.0629}
{"sequence": "CTAAGTAA", "PBM E-score": -0.121}
{"sequence": "AGCGTAAC", "PBM E-score": -0.0061}
{"sequence": "GACGAGTC", "PBM E-score": -0.198}
{"sequence": "CCGTTACG", "PBM E-score": 0.341}
{"sequence": "AAAGTTGG", "PBM E-score": -0.224}
{"sequence": "TAATGATA", "PBM E-score": 0.0702}
{"sequence": "GGTGCCAC", "PBM E-score": -0.121}
{"sequence": "AAAATGAT", "PBM E-score": 0.0731}
{"sequence": "CTTTCCCA", "PBM E-score": -0.0926}
{"sequence": "ACGCTCTA", "PBM E-score": -0.14}
{"sequence": "CGCTGCGA", "PBM E-score": -0.0742}
{"sequence": "CACATAAG", "PBM E-score": -0.0891}
{"sequence": "GCAAAGGC", "PBM E-score": -0.165}
{"sequence": "CACCGGGA", "PBM E-score": 0.261}
{"sequence": "AGTATACT", "PBM E-score": -0.245}
{"sequence": "ATTAGAAA", "PBM E-score": -0.0503}
{"sequence": "ACGCCGAT", "PBM E-score": 0.29}
{"sequence": "AGCCAACT", "PBM E-score": -0.262}
{"sequence": "GAGCGTAA", "PBM E-score": 0.0168}
{"sequence": "GGAAGACC", "PBM E-score": 0.0832}
{"sequence": "AACTGATT", "PBM E-score": -0.2}
{"sequence": "AGCGTGCG", "PBM E-score": 0.087}
{"sequence": "CCATATAA", "PBM E-score": -0.203}
{"sequence": "AATACGAA", "PBM E-score": 0.00441}
{"sequence": "GTAGAAGA", "PBM E-score": -0.122}
{"sequence": "CATTTAGC", "PBM E-score": -0.0732}
{"sequence": "CCGCCCTA", "PBM E-score": -0.00915}
{"sequence": "GAAGAGAC", "PBM E-score": 0.107}
{"sequence": "AACAGCTA", "PBM E-score": -0.0549}
{"sequence": "CACAACCC", "PBM E-score": -0.138}
{"sequence": "GCCAGGAC", "PBM E-score": -0.134}
{"sequence": "TAGGGACA", "PBM E-score": 0.0204}
{"sequence": "GGAAGAAA", "PBM E-score": 0.0328}
{"sequence": "AAGAAGGG", "PBM E-score": -0.295}
{"sequence": "CCCTTTGA", "PBM E-score": -0.179}
{"sequence": "ATATAACC", "PBM E-score": 0.144}
{"sequence": "GCCGCACA", "PBM E-score": -0.0419}
{"sequence": "AAACCTAG", "PBM E-score": -0.165}
